The list shows a part of the results. These are noisy estimates, calculated here from bound and input reads.

The target in this experiment is T1, Pho4 (S. cerevisiae) (UniProt P07270).
T1 sequence: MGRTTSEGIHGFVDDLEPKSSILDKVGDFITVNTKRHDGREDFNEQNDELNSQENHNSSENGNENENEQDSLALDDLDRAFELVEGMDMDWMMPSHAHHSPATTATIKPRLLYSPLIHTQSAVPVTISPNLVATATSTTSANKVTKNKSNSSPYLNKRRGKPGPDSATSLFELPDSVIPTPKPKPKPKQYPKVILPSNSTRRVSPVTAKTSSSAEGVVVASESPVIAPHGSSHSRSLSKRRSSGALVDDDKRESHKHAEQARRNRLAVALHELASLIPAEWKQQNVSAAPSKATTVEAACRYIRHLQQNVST
The experiment in a line: relative binding free energy (BET-seq); higher = weaker binding. As to conditions: reference: library average.
As to ATTGTCACGTGTCGAT, the “relative binding free energy” value came to 0.03 kcal/mol. The figure for TGGTACACGTGTTGAT is 0.08 kcal/mol; for TAATTCACGTGGAGAG it is 0.31 kcal/mol; for CAAGTCACGTGTGGCT it is 0.13 kcal/mol. Regarding TATGCCACGTGGGGAT, the “relative binding free energy” value was -0.17 kcal/mol. The figure for TGGCACACGTGCGGTG is -0.07 kcal/mol; for TATACCACGTGGTGTT it is -0.3 kcal/mol. As to TGTGGCACGTGCTATA, the “relative binding free energy” value was -0.24 kcal/mol. The figure for TGGGTCACGTGCGACT is 0.17 kcal/mol; for CGGGACACGTGGTGAT it is 0.05 kcal/mol; for AGAGGCACGTGAGGGG it is 0.11 kcal/mol. Take TGATACACGTGTTACG: the “relative binding free energy” value is 0.17 kcal/mol.

As for ATGATCACGTGCTTTT, the “relative binding free energy” value is 0.11 kcal/mol. As for AGCAGCACGTGAGTTG, the “relative binding free energy” value is 0.07 kcal/mol. The figure for AAGTACACGTGGGCGT is 0.02 kcal/mol; for TGTTGCACGTGTGGAG it is 0.06 kcal/mol; for GGTTGCACGTGGGATG it is -0.06 kcal/mol.

In the case of GGGATCACGTGCGGCT, the “relative binding free energy” value was 0.1 kcal/mol. The value for TTTTTCACGTGTGAAA was 0.35 kcal/mol. The value for GAACTCACGTGGTTGT was 0.24 kcal/mol; that for AGACTCACGTGGAGGG was 0.19 kcal/mol.

With TGCTGCACGTGGAGGG, the “relative binding free energy” value is -0.11 kcal/mol. GATAGCACGTGAGGTG: the “relative binding free energy” value stood at 0.1 kcal/mol. The figure for TTTGTCACGTGTTGCT is 0.13 kcal/mol; for GAGTTCACGTGGACGG it is 0.31 kcal/mol. The figure for TTATGCACGTGGTCAA is -0.07 kcal/mol; for AGATGCACGTGGCGTG it is -0.2 kcal/mol; for GTGTACACGTGAGTGC it is 0.17 kcal/mol. For the sequence ATTGCCACGTGTGTAT, the “relative binding free energy” value is -0.2 kcal/mol. As for GATTGCACGTGTCGGG, the “relative binding free energy” value came to 0.03 kcal/mol. The figure for GTGAGCACGTGCTTGT is -0.14 kcal/mol. Turning to AGGTTCACGTGGCGGT, the “relative binding free energy” value worked out at 0.17 kcal/mol. The figure for TATGCCACGTGGTAGG is -0.14 kcal/mol. The figure for TCGGACACGTGAAGTG is 0.31 kcal/mol.

Regarding GCAATCACGTGGATGT, the “relative binding free energy” value turned out to be 0.29 kcal/mol.

In the case of AGTAGCACGTGTGGGC, the “relative binding free energy” value is -0.12 kcal/mol. On to TCGTGCACGTGAGTGA, for which the “relative binding free energy” value amounted to 0.11 kcal/mol. On to ACTAGCACGTGTAGGG, for which the “relative binding free energy” value was -0.06 kcal/mol. With ATCGTCACGTGAAAGT, the “relative binding free energy” value is 0.33 kcal/mol. As to GGGCTCACGTGTATGT, the “relative binding free energy” value is 0.19 kcal/mol. The value for CTTGGCACGTGTTGCG was -0.05 kcal/mol; that for ATTGGCACGTGTATGA was -0.1 kcal/mol. The value for CCTTTCACGTGTTGGT was 0.29 kcal/mol. The figure for TGGTTCACGTGGAAGC is 0.47 kcal/mol; for GTCGTCACGTGGGGAA it is -0.14 kcal/mol; for TGTGTCACGTGAACTT it is 0.21 kcal/mol. As for TGTGGCACGTGTGCTA, the “relative binding free energy” value was -0.12 kcal/mol.

For the sequence GTATGCACGTGCGTGT, the “relative binding free energy” value was -0.13 kcal/mol.

Regarding TAAGTCACGTGAGTTC, the “relative binding free energy” value worked out at 0.26 kcal/mol.

For GAGATCACGTGTTTGG, the “relative binding free energy” value was 0.03 kcal/mol. The figure for TTATACACGTGATCGT is 0.03 kcal/mol; for CTGTTCACGTGTTTGT it is 0.28 kcal/mol; for GTATTCACGTGAATAG it is 0.25 kcal/mol. The value for GTATTCACGTGCGGAG was 0.17 kcal/mol.

For AAATTCACGTGGGTTC, the “relative binding free energy” value is 0.15 kcal/mol. GAGGTCACGTGTTAGA: the “relative binding free energy” value amounted to 0.32 kcal/mol.

In the case of GCGCTCACGTGAGTGG, the “relative binding free energy” value is 0.36 kcal/mol. The figure for GGAGACACGTGGGATA is -0.06 kcal/mol; for TAGCTCACGTGGGGGC it is 0.15 kcal/mol. As to TGTAACACGTGAGAGA, the “relative binding free energy” value was 0.44 kcal/mol. Regarding AAATACACGTGGGTTT, the “relative binding free energy” value is 0.02 kcal/mol. For the sequence GGAAGCACGTGATGTA, the “relative binding free energy” value worked out at 0.02 kcal/mol. As to CGGTACACGTGGATGG, the “relative binding free energy” value turned out to be 0.09 kcal/mol.

Consider TAAGTCACGTGAGTAG, for which the “relative binding free energy” value is 0.31 kcal/mol. For CAGTGCACGTGTCGGT, the “relative binding free energy” value came out at 0 kcal/mol. As to GGTTACACGTGAGAAT, the “relative binding free energy” value came out at 0.43 kcal/mol.

Take AGATTCACGTGAGGGG: the “relative binding free energy” value was 0.42 kcal/mol. Turning to GGCTTCACGTGGGGGC, the “relative binding free energy” value was 0.22 kcal/mol.

Take GGGCCCACGTGAGGGT: the “relative binding free energy” value is 0.12 kcal/mol. For the sequence TGAGTCACGTGGGTAC, the “relative binding free energy” value is -0.08 kcal/mol.

On to TTGAGCACGTGTTTTG, for which the “relative binding free energy” value stood at 0 kcal/mol. TGCTTCACGTGGAGAT: the “relative binding free energy” value stood at 0.44 kcal/mol. The value for GAGGGCACGTGCGGCT was -0.09 kcal/mol; that for GTAGGCACGTGAGCGC was 0.28 kcal/mol; that for GACAACACGTGGTGGG was -0.04 kcal/mol. The figure for TAACTCACGTGGTCGG is 0.37 kcal/mol; for CGTCGCACGTGAGTTG it is 0.17 kcal/mol. The value for TGTATCACGTGTGGGA was 0.1 kcal/mol; that for GGTTTCACGTGTATAA was 0.25 kcal/mol; that for GTGTGCACGTGAACGG was 0.26 kcal/mol.

For AAGTACACGTGTGTGG, the “relative binding free energy” value came out at 0 kcal/mol. CGGTGCACGTGGATGG: the “relative binding free energy” value was -0.1 kcal/mol.

Turning to AAAGGCACGTGAGGTT, the “relative binding free energy” value is 0.2 kcal/mol. The figure for TATGACACGTGGGCTG is -0.27 kcal/mol; for TATGGCACGTGGCAAG it is -0.12 kcal/mol; for CTTGTCACGTGGGTTG it is -0.03 kcal/mol. In the case of GTAGACACGTGTTAGT, the “relative binding free energy” value came to 0.09 kcal/mol. The value for GTTAGCACGTGTTCGG was 0.1 kcal/mol. The figure for GAGGACACGTGGGAAG is 0.06 kcal/mol; for TCATGCACGTGGCTGT it is -0.03 kcal/mol. With ATCGGCACGTGGCTAG, the “relative binding free energy” value is -0.07 kcal/mol. The figure for AAGATCACGTGTGTCG is 0.21 kcal/mol.

In the case of TTTGGCACGTGAGCTT, the “relative binding free energy” value turned out to be 0.04 kcal/mol. The figure for GGAGGCACGTGGTTCA is 0.01 kcal/mol; for TTCTCCACGTGTGTGT it is -0.01 kcal/mol; for GTACACACGTGTAGGG it is 0.04 kcal/mol. The value for GGCGTCACGTGGTTAG was 0.12 kcal/mol; that for GTGGTCACGTGTAGGA was 0.11 kcal/mol. The figure for CTGTGCACGTGGTTAA is 0.06 kcal/mol. Take TCGATCACGTGGGGCT: the “relative binding free energy” value is 0.15 kcal/mol. The figure for TTTATCACGTGCTGGT is 0.16 kcal/mol; for TTAGACACGTGTTTAG it is -0.04 kcal/mol; for GCGGGCACGTGTAGAT it is 0.37 kcal/mol.

With GTCTGCACGTGAGGAA, the “relative binding free energy” value is 0.43 kcal/mol. The value for TGATGCACGTGTTTGA was -0.05 kcal/mol. Turning to CGGTGCACGTGGAGCG, the “relative binding free energy” value is -0.11 kcal/mol. The figure for TAAATCACGTGCTTGT is 0.05 kcal/mol; for AATGACACGTGTTAAG it is 0.02 kcal/mol. The value for CTGTGCACGTGTATTT was -0.08 kcal/mol; that for GTTCTCACGTGTAGGT was 0.22 kcal/mol. For ATATACACGTGTTTCT, the “relative binding free energy” value is -0.05 kcal/mol.

TGGAGCACGTGGGCAC: the “relative binding free energy” value is -0.1 kcal/mol. For the sequence CGTCGCACGTGGGAGG, the “relative binding free energy” value is -0.12 kcal/mol. GAATACACGTGGGTAG: the “relative binding free energy” value is -0.05 kcal/mol.

On to TACCGCACGTGGGTTG, for which the “relative binding free energy” value was -0.05 kcal/mol.

The values above are taken from the BET-seq Pho4 binding data (Le et al. 2018).
